Test results from US20240228584A1 (FBD BIOLOGICS, published 2024).

T1: human TGFβ2 (human, UniProt P61812 303-414)
T1 sequence (looked up): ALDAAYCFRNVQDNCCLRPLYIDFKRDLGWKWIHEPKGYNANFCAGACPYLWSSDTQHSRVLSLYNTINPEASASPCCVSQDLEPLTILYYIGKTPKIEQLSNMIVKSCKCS

B1: G4_TGFβRII_mt1 (Fc fusion)
chain: [letters of human IgG4 Fc with S228P (EU numbers) omitted]AGGGGSGGGGSGGGGSGGGGSGIPPHVQKSVNNDMIVTDNNGAVKFPQLCKFCDVRFSTCDNQKSCMSNCEITSICEKPQEVCVAVWRKNDENITLETVCHDPKLPYHDFILEDAASPKCIMKEKKKPGETFFMCSCSSDECNDNIIFSEEYNTSNPD
B2: G4_TGFβRII_mt2 (Fc fusion)
chain: [letters of human IgG4 Fc with S228P (EU numbers) omitted]AGGGGSGGGGSGGGGSGGGGSGIPPHVQKSVNNDMIVTDNNGAVKFPQLCKFCDVRFSTCDNQKSCMSNCQITSICEKPQEVCVAVWRKNDENITLETVCHDPKLPYHDFILEDAASPKCIMKEKKKPGETFFMCSCSSDECNDNIIFSEEYNTSNPD
B3: G4_TGFβRII_mt3 (Fc fusion)
chain: [letters of human IgG4 Fc with S228P (EU numbers) omitted]AGGGGSGGGGSGGGGSGGGGSGIPPHVQKSVNNDMIVTDNNGAVKFPQLCKFCDVRFSTCDNQKSCMSNCSITSICEKPQEVCVAVWRKNDENITLETVCHDPKLPYHDFILEDAASPKCIMKEKKKPGETFFMCSCSSEECNDNIIFSEEYNTSNPD
B4: G4_TGFβRII_mt4 (Fc fusion)
chain: [letters of human IgG4 Fc with S228P (EU numbers) omitted]AGGGGSGGGGSGGGGSGGGGSGIPPHVQKSVNNDMIVTDNNGAVKFPQLCKFCDVRFSTCDNQKSCMSNCEITSICEKPQEVCVAVWRKNDENITLETVCHDPKLPYHDFILEDAASPKCIMKEKKKPGETFFMCSCSSEECNDNIIFSEEYNTSNPD
notes: also called m4

Each binder was assayed against T1, human TGFβ2 (assay: ELISA, plate coated with 0.5 ug/ml human TGFβ2, 1 h incubation, OD450).
Experimental: (§1) A 96-well EIA microplate was coated with 0.5 ug/ml human TGFβ (TGFβ1, TGFβ2, or TGFβ3) overnight at 4° C. […] The unbound proteins were removed by washing the wells with 1×PBST (1×PBS containing 0.05% Tween 20) three times. A HRP-conjugated secondary antibody (1:5000) was added to the wells at room temperature (RT) for 1 hour. After the incubation, excess secondary antibodies were removed by washing the wells with 1×PBST three times. Finally, 3,3′,5,5′-Tetramethylbenzidine (TMB) was added for color development. The reaction was stopped and HRP activity was measured using a spectrophotometer at 450 nm.

binding result | Binder
no binding (tested: 300 nM) | B1
no binding (tested: 300 nM) | B2
no binding (tested: 300 nM) | B3

Each binder was assayed against T2, human TGFβ1 (human, UniProt P01137 in part) (assay: ELISA (off rate), plate coated with 0.5 ug/ml human TGFβ1, 1 h incubation, then 2 h wash on a shaker, OD450).
Experimental: A HRP-conjugated secondary antibody (1:5000) was added to the wells at RT for 1 hour. After the incubation, excess secondary antibodies were removed by washing the wells with 1×PBST three times. Finally, 3,3′,5,5′-Tetramethylbenzidine (TMB) was added for color development. The reaction was stopped and HRP activity was measured using a spectrophotometer at 450 nm.

EC50 (read off the curve) [nM] | Binder
~3 | B1
~6 | B2
~4 | B3
~2 | B4

The binders below were run against T2, human TGFβ1 (assay: ELISA (on rate), plate coated with 0.5 ug/ml human TGFβ1, 5 min incubation, OD450).
T2 sequence (P01137 279-390 limits assumed): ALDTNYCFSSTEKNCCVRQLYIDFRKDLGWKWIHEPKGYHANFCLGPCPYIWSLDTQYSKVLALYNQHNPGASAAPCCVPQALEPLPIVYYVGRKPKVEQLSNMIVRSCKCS
Experimental: as §1, with “For on-rate binding ability, a 96-well” for “A 96-well”, “0.5 μg/ml” for “0.5 ug/ml”, “TGFβ (TGFβ1)” for “TGFβ (TGFβ1, TGFβ2, or TGFβ3)”, “containing 0.1%” for “containing 0.05%”, “at RT” for “at room temperature (RT)”

EC50 [nM] | Binder
6.3 | B1
15.2 | B2
10.8 | B3
6.23 | B4
